The supplement of paper PMC11417369
Some of the results follow.

Test system: PF3D7_0420300 AP2 domain 1 (GST-tagged)
Assay: gcPBM binding intensity (ln(normalized median fluorescence intensity)); higher = stronger DNA binding
In short: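 Using an Agilent 4 × 180k array, primer-extended double-stranded 36-bp intergenic genomic probes and negative controls were exposed for 1 h to GST-fused P. falciparum DNA-binding domains expressed in E. coli. Binding was carried out in 1× PBS with 1% milk, 0.2 mg/ml BSA, 0.5% salmon testes DNA and 0.03% Triton X-100, and protein was detected with Alexa488 anti-GST antibody and a 488 nm scan. Binding intensity is the highest Masliner-normalised natural-log median intensity across replicate spots of either probe orientation.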

First: ATTTGAAATGCATGAACACACACAGCTATAAATGCA [CACACA_site8229]
Second: TAGTAATATATATTTTGTACATAAAATAATATATAA [XGTACX_site7971]
The “gcPBM binding intensity (ln)” value of the first is higher: 9.46 for the first, 8.96 for the second.

First: CGTTATTATCCACATACACACAGGAATAAAAAATTA [CACACA_site2883]
Second: TATATATGTTAAAACGTGCACATATATATATATATA [GTGCAC_site9589]
The “gcPBM binding intensity (ln)” value of the first is higher: 9.65 for the first, 9.1 for the second.

“ATAAAATATAAAAAAAGTACAAAAAAAAAAAAAAAA [XGTACX_site6657]” and “AAACTGTCGCTCATAAAGAAGAATGAAATACATTAA [TGCATGCA_negctrl_site60]” are the same in “gcPBM binding intensity (ln)” value: 9.05 for the first, 9.05 for the second.

First: ACCCATGATTGTTACAGTACTCTACTTTCTAATATA [XGTACX_site98]
Second: ATATATGCATATTATACACACATATGTATATACATT [CACACA_site965]
The “gcPBM binding intensity (ln)” value of the first is higher: 9.59 for the first, 9.56 for the second.

Going from “AAAAAAAAAAAAAATGCACACAATGGCTAGCTGTAC [CACACA_site2273]” to “TTTTCTGTATATTGTGTGCACACAATTAACAAAAAA [GTGCAC_site9817]”, the “gcPBM binding intensity (ln)” value rises from 9.45 to 9.46.

First: TGGAGGTCAGTTCACAGTACCCAGGAAATCTACGGA [XGTACX_site1995]
Second: CCATAGATATTTTATACACACATATAACATATTAAT [CACACA_site6312]
The “gcPBM binding intensity (ln)” value of the first is lower: 8.93 for the first, 9.52 for the second.

First: ATATTGACAAATATTACACACATATATAAATATGTA [CACACA_site7835]
Second: ATTTATTTTAATATATGTACATATATTTTTTTATTA [XGTACX_site3389]
The “gcPBM binding intensity (ln)” value of the first is higher: 9.45 for the first, 9.19 for the second.

“ATATAATATTACACAAGTACAAAAATTAATACTAAA [XGTACX_site482]” and “TTAGTCATATATATATGTACACACATATATATATTT [XGTACX_site2948]” are the same in “gcPBM binding intensity (ln)” value: 9.36 for the first, 9.36 for the second.

Compared with “ATTTTTATATAATGAACACACATATTATATCATTTA [CACACA_site1572]”, “AAAAGAAAATAAGAAACACACAAAAATATGTAAAAA [CACACA_site7694]” is higher in “gcPBM binding intensity (ln)” value: 9.39 for the first, 9.79 for the second.

Going from “GAACATACTCAAATAGCACACACATAAATAAAAATG [CACACA_site9283]” to “AAAATCCACATTTTAGTACACACTTAAAAAATTATT [CACACA_site2955]”, the “gcPBM binding intensity (ln)” value falls from 9.71 to 9.27.

Going from “TTATATATATATATATGTACGAAAAAGAAAAAAAAG [XGTACX_site6761]” to “TATATATATATAATATGTACATATAATCAACATTTT [XGTACX_site3915]”, the “gcPBM binding intensity (ln)” value falls from 9.35 to 9.25.

First: ATATTATATAAATATACACACATTGTTTTATAGCAT [CACACA_site2386]
Second: AAAAAAAAATACATATGTACATATACATATATATAT [XGTACX_site2975]
The “gcPBM binding intensity (ln)” value of the first is higher: 9.46 for the first, 9.18 for the second.

First: ATATATTTAATTTATGGTACACATAATTTTTTTAGA [XGTACX_site848]
Second: TTAAAAAAAAGACACACACACATACACATATTTATA [CACACA_site7535]
The “gcPBM binding intensity (ln)” value of the first is lower: 9.13 for the first, 10 for the second.

First: TATATATATATATATACACACATATATATAAATATA [CACACA_site2035]
Second: CACAAAAGTAAGCACGCACACACAACCTGAAATAAA [CACACA_site166]
The “gcPBM binding intensity (ln)” value of the first is lower: 9.2 for the first, 9.78 for the second.

Going from “TATCATTATGTAGAAACACACATAAGCTTCGGTTCA [CACACA_site2766]” to “GGGGAAAAAAAAAAAGGAAAAAGAAAAAAAAAAAAA [GTGCAC_negctrl_site489]”, the “gcPBM binding intensity (ln)” value falls from 9.24 to 8.55.

First: ATAAAATTTATATAAGCACACAAATATATATTTATA [CACACA_site9083]
Second: GTAAAGGCTATATATGTGCACATTTTTTTTTTTTTT [GTGCAC_site9925]
The “gcPBM binding intensity (ln)” value of the first is lower: 9.29 for the first, 9.44 for the second.

First: AATTGCATAATATATTCACACATTTTTAAGTGATAC [CACACA_site5679]
Second: TTATGGTTATACATATGTACATATATATATATATAT [XGTACX_site1494]
The “gcPBM binding intensity (ln)” value of the first is lower: 9.24 for the first, 9.29 for the second.

Going from “ATATTATTTTAAAAAAGTACATTTTTAAGAATTCTT [XGTACX_site6630]” to “AACATATAAATAAACTGTACATATATATATATATAT [XGTACX_site1056]”, the “gcPBM binding intensity (ln)” value rises from 8.85 to 9.17.

Going from “AATATTACGTGTTTGGTATTTTTCGATGTTGGCAGG [XGTACX_negctrl_site59]” to “TCTCAGTAAATTAAATGTACATAAGGGAGGAACTAT [XGTACX_site8045]”, the “gcPBM binding intensity (ln)” value rises from 9.43 to 9.44.

Going from “TTGTGGATTTTGTGCGCACACACATGCAAAAAGAAA [CACACA_site1147]” to “TAAATATATGCATATACACACAACAAAAAAATATAT [CACACA_site2341]”, the “gcPBM binding intensity (ln)” value rises from 9.4 to 9.85.

First: CACAGACATATATATACACACTTTTATTTAAATAAC [CACACA_site4962]
Second: AAAAAAAAAATGTGCACACGCGTACACCCAAAAAAA [CACACA_site5149]
The “gcPBM binding intensity (ln)” value of the first is higher: 9.54 for the first, 9.48 for the second.

Going from “TTTTTGTATCCTTCTTCTTTTTCCAGACTACATTAT [XGTACX_negctrl_site216]” to “TATAAAAATAATATTACACACATGTAAAATGGCTGT [CACACA_site5755]”, the “gcPBM binding intensity (ln)” value rises from 9.34 to 9.46.

First: GTATATATATATATATGTACATATATGTAGATATAT [XGTACX_site5431]
Second: ATATGTACGCAAGGTGCACACTGGTGCATTAAAAAA [CACACA_site1801]
The “gcPBM binding intensity (ln)” value of the first is higher: 9.35 for the first, 9.24 for the second.

Compared with “TTTTATTTTTTCTCACGTACAAATATATAATTTTTT [XGTACX_site6952]”, “ATGAATATAAAATATACACACTTATATATCGAATGA [CACACA_site6240]” is higher in “gcPBM binding intensity (ln)” value: 9.22 for the first, 9.31 for the second.

First: TACATATGGCACATATGTACACACGTATAGATAATA [XGTACX_site4123]
Second: AATATATCCTATTCGAACAAAAATACATGCACATAT [CACACA_negctrl_site1058]
The “gcPBM binding intensity (ln)” value of the first is lower: 9.19 for the first, 9.4 for the second.

First: CAACCTTTTTTGTTGGTGCATAATTTTTTTTTCTTT
Second: ATATATATATATTGCACACATATAAATATATATATT [CACACA_site807]
The “gcPBM binding intensity (ln)” value of the first is lower: 9.28 for the first, 9.39 for the second.

Compared with “AATATATAGCTAAAAACACACAAATATATACTCATA [CACACA_site5904]”, “ATACATTTTTTTTTCACACATATATATATATTTAAT [CACACA_site5995]” is lower in “gcPBM binding intensity (ln)” value: 9.67 for the first, 9.5 for the second.

Going from “CTCACGTAGCTTGATGCATGCAAACTTGAGTAAAAG [TGCATGCA_site409]” to “TTTATAAAATTTATTGCACACAATTATTTTATAATT [CACACA_site2489]”, the “gcPBM binding intensity (ln)” value rises from 8.91 to 9.1.

For “CATATACTCGGACACACACACACACCGACAAAAAAA [CACACA_site4433]”, the “gcPBM binding intensity (ln)” value was 10.1.
